“And” between values parts separate entries of the source, which are not always exact repeats. Equal values may be shown once. Among all 110,000 compounds or so, about 230 (0.21%) showed an effect of 50% or more. This is one part of the list.
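Also: 30 min substrate incubation versus DMSO and 10 µM JCP410 controls.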

The target of the assay is DPAP1 (Plasmodium falciparum, UniProt Q8IIJ9). Briefly: primary screen, percent inhibition; read by cleavage of a fluorogenic dipeptide substrate; higher = more effect of the substance. Further details: species or system P. falciparum D10 trophozoite lysates; single well.
DPAP1, sequence (Q8IIJ9 whole entry, looked up): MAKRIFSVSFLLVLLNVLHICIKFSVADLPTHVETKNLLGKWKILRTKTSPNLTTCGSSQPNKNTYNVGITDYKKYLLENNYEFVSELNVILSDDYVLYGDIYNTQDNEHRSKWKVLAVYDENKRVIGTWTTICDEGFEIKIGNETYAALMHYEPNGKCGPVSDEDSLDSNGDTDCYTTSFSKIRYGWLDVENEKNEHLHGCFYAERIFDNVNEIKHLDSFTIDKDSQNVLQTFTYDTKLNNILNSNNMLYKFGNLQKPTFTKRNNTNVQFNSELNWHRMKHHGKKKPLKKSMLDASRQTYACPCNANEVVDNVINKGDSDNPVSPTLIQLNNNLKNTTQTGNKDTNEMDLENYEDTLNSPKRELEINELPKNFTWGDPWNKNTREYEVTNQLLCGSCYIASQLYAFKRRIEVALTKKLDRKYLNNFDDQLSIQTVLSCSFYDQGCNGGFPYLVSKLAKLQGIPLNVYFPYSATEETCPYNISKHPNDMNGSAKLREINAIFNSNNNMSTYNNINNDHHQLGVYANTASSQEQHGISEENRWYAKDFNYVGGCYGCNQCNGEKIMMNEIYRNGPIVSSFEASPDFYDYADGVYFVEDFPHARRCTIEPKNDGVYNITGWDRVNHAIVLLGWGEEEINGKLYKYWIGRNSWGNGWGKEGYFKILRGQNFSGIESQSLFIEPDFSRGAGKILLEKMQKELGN
Turning to `CN(C)C(=O)N1CCC(C(=O)NCc2ccc(F)cc2)CC1`, the “% Inhibition @ 10 uM” value was determined as 2.05%.

With `COc1ccc(-c2noc(CC(=O)NCc3ccc(Cl)cc3)n2)cc1`, the “% Inhibition @ 10 uM” value was 5.09%.

As for `CCC(=O)Nc1cc2nn(-c3ccc(Cl)cc3)nc2cc1C`, the “% Inhibition @ 10 uM” value is -7.69%.

Take `O=c1cc(O)nc(SCc2ccc(Cl)cc2)n1-c1ccccc1`: the “% Inhibition @ 10 uM” value turned out to be 9.4%.

As to `COc1ccc(C2(CNC(=O)c3ccc(OC)cc3OC)CCOCC2)cc1`, the “% Inhibition @ 10 uM” value was 3.15%.

`CC(C)C/N=C1/C=C(O)CC(c2ccco2)C1` (stereo not shown): the “% Inhibition @ 10 uM” value was 1.82%.

As for `Cc1ccc(C2CC(C(F)(F)F)n3nc(C(=O)NCc4c(C)nn(C)c4C)c(Cl)c3N2)cc1` (stereo not shown), the “% Inhibition @ 10 uM” value is -4.67%.

Turning to `COc1ccc(NC(=O)CCC2CCCC2)cc1`, the “% Inhibition @ 10 uM” value is listed as 2.64%.

In the case of `COc1ccc(/C=C2\SC(N3CCN(C)CC3)=NC2=O)cc1OC`, the “% Inhibition @ 10 uM” value was -1.08%.

Take `CC(C)CNS(=O)(=O)c1ccc(CCC(=O)Nc2cccc(F)c2)cc1`: the “% Inhibition @ 10 uM” value is given as -0.545%.

For the compound `COc1ccc(OC)c(CN2CCSCC2)c1`, the “% Inhibition @ 10 uM” value was found to be 3.8%.

As to `CCOC(=O)c1c(C)c(C(=O)NCCCN(C)C)c(C)n1CC`, the “% Inhibition @ 10 uM” value is 0.0579%.

Turning to `CCNc1nc(N2CCOCC2)nc(-n2nnc(C(=O)OCC)c2C)n1`, the “% Inhibition @ 10 uM” value is given as -0.703%.

Regarding `Cc1ccc(C2CC(c3c(O)cc(C)oc3=O)=NCCS2)cc1` (stereo not shown), the “% Inhibition @ 10 uM” value worked out at 0.774%.

Regarding `Clc1ccccc1OCCCCCCN1CCOCC1`, the “% Inhibition @ 10 uM” value was 1.83%.

For `Cc1ccc(C(=O)N/C(=C/c2ccc(Cl)cc2)C(=O)O)cc1`, the “% Inhibition @ 10 uM” value was 5.2% and -4.27%.

In the case of `O=C1/C(=C/c2ccc3ccccc3c2)Cc2ccccc21`, the “% Inhibition @ 10 uM” value is recorded as 6.11%.

Regarding `CC1CC(C)CN(c2oc(/C=C/c3cccs3)nc2C#N)C1` (stereo not shown), the “% Inhibition @ 10 uM” value is reported as -3.49%.

Take `CCc1ccc(/N=c2\oc(C)cc(O)c2C(C)=O)cc1`: the “% Inhibition @ 10 uM” value is given as -4.41%.

In the case of `CC(C)CC(C(=O)NCCN1CCOCC1)N1Cc2ccccc2C1=O` (stereo not shown), the “% Inhibition @ 10 uM” value is listed as 1.34%.

Consider `Fc1ccc(N2N=C(c3cccs3)CC2c2ccco2)c(F)c1` (stereo not shown), for which the “% Inhibition @ 10 uM” value is on record as -2.36%.

As to `CC1=NN(c2nc(O)cc(-c3ccccc3)n2)C(=O)C1`, the “% Inhibition @ 10 uM” value came out at 1.04%.

For the compound `CCOC(=O)c1c(C)[nH]c(C)c1S(=O)(=O)NCC(=O)Nc1cccc(C)n1`, the “% Inhibition @ 10 uM” value was determined as 18.4%.

Regarding `CCOc1ccc(/C(O)=C/C=N/c2ccc(C(C)=O)cc2)cc1`, the “% Inhibition @ 10 uM” value is -2.68%.

For `COc1ccccc1N1CCN(C2CC(=O)N(c3cccc(Br)c3)C2=O)CC1` (stereo not shown), the “% Inhibition @ 10 uM” value was 4.11%.

As for `COc1cc(C2CCCCC2C)cc(OC)c1OC` (stereo not shown), the “% Inhibition @ 10 uM” value was -3.83%.

On to `CCOc1ccc(OCC)c(C2C(C#N)=C(N)Oc3[nH]nc(C)c32)c1` (stereo not shown), for which the “% Inhibition @ 10 uM” value is reported as -1.44%.

`Cc1ccc(S(=O)(=O)N2CCCC(NC(=O)N3CCCCC3C)C2)cc1` (stereo not shown): the “% Inhibition @ 10 uM” value was -4.67%.

For `Cc1cc(/C=C2\SC(Nc3ccccc3)=NC2=O)c(C)n1-c1cc(C(=O)O)cc(C(=O)O)c1`, the “% Inhibition @ 10 uM” value amounted to 34.2%.

For `CC(C)C[C@H](NC(=O)OCc1ccccc1OC(F)F)C(=O)NCC#N`, the “% Inhibition @ 10 uM” value is recorded as 1.71%.

Regarding `CC(C)CNS(=O)(=O)c1ccc(CCC(=O)N2CCN(c3ccc(F)cc3)CC2)cc1`, the “% Inhibition @ 10 uM” value was -2.74%.

Regarding `CSc1ccc(/C=C2/N=C(c3cccc4ccccc34)OC2=O)cc1`, the “% Inhibition @ 10 uM” value is -4.2%.

Take `Cc1cc2ccccc2n1CCNC(=O)C(C)C`: the “% Inhibition @ 10 uM” value is recorded as -1%.

With `CCOc1ccc(OCc2ccc(C(=O)N3N=C(C)CC3(O)C(F)(F)F)o2)cc1` (stereo not shown), the “% Inhibition @ 10 uM” value is 0.709%.

In the case of `Cc1cc(C)c(S(=O)(=O)Nc2cc(C(F)(F)F)ccc2Cl)c(C)c1`, the “% Inhibition @ 10 uM” value is reported as -3.8%.

Regarding `O=C1C=CC(=O)N1c1ccc(-c2ccccc2)cc1`, the “% Inhibition @ 10 uM” value was 0.716%.

Take `O=C(NCCC1=CCCCC1)C1CCN(C(=O)c2ccc(Br)cc2)CC1`: the “% Inhibition @ 10 uM” value is -9.29%.

As to `CCc1nnc(SCc2nc(-c3ccccc3)oc2C)c2cc3occc3n12`, the “% Inhibition @ 10 uM” value is 2%.

For `Cc1cccn2c(=O)c3cc(C(=O)N4CCN(C)CC4)c(=N)n(Cc4cccnc4)c3nc12`, the “% Inhibition @ 10 uM” value amounted to 5.17%.

Consider `c1ccc(CCNCc2ccccc2)cc1`, for which the “% Inhibition @ 10 uM” value is -0.736%.

In the case of `N#Cc1c(NC(=O)COc2ccc(F)cc2)sc2c1CCCC2`, the “% Inhibition @ 10 uM” value turned out to be 2.38%.

As to `Cc1ccc2c(Cl)c(C(=O)Nc3cc(S(N)(=O)=O)ccc3C)sc2c1`, the “% Inhibition @ 10 uM” value was determined as 4.32%.

Turning to `COC(=O)c1ccc2c(c1)C(=O)N(c1ccccc1OC)C2=O`, the “% Inhibition @ 10 uM” value is -5.36%.

Turning to `CCOC(=O)c1cnn(-c2ccccc2)c1NC(=O)c1cccs1`, the “% Inhibition @ 10 uM” value was found to be 9.47%.

`Cc1cccc(C)c1NC(=O)C1CC=CCC1C(=O)O` (stereo not shown): the “% Inhibition @ 10 uM” value is on record as -3.04%.

For `C=CCNC(=O)c1cc2c(=O)n3cc(C)ccc3nc2n(CCOC)c1=N`, the “% Inhibition @ 10 uM” value was -3.27%.

`COCCCNC(=O)Cn1cc(C(=O)c2ccccc2)c(=O)c2ccc(C)nc21`: the “% Inhibition @ 10 uM” value is -0.436%.

As for `O=C(NCCN1CCOCC1)c1ccc(CS(=O)c2ccccc2Cl)o1` (stereo not shown), the “% Inhibition @ 10 uM” value is listed as 0.677%.

Regarding `O=S1(=O)C(/C=N/Cc2ccc(F)cc2)=C(O)c2sccc2N1Cc1ccccc1`, the “% Inhibition @ 10 uM” value is recorded as -2.35%.

Regarding `COc1ccccc1C(=O)Nc1sc(C)cc1C(=O)O`, the “% Inhibition @ 10 uM” value is recorded as -7.9%.

On to `COc1ccccc1NC(=O)C(C)Oc1ccc(F)cc1` (stereo not shown), for which the “% Inhibition @ 10 uM” value is listed as -1.79%.

Consider `C1CCN(c2nc3nonc3nc2N2CCCC2)C1`, for which the “% Inhibition @ 10 uM” value was found to be 5.55%.

Values taken from PMC6919601, “Identification of Plasmodium dipeptidyl aminopeptidase allosteric inhibitors by high throughput screening” (PLoS ONE, 2019).
